Source: the RNAGym collection of RNA variant scans (doi:10.7554/elife.90254)
The source gives no read counts; variants with many changes may rest on few reads.

B1: LINE1-mini (parent)
chain: GGCAGAGCUCAACACAGCGUGGCAAAGUGGCUGUGGCUAGACUGCC

Variants of: B1
Test: self-cleavage, relative activity (ratio to wild type); higher = more cleavage; in vitro, sequencing; the parent is a self-cleaving ribozyme

| Variant | self-cleavage |
| --- | --- |
| GGCAGUGCUGAACACAGCGUGGCAAAGUGGCUGUGGCUAGACUGCU | 0 |
| GCCAGAGCUCAACACCGAGUGGCAAAGUUGAUGUGGGUAGAUUGCC | 0.02 |
| GGCAGAGCUCAACACAGCGUGGCAAAGGGGCUGCGGCUAAACUGCC | 0.03 |
| GGCAGAGCUCAACACAAAGUGGCAAAGUGGCUGUGGCUAGACUGCA | 0.03 |
| GGCAAAGCUUCACAAAGUGUGGCAAACUGGCUUGGGCUAGACUGCU | 0.01 |
| GGCUGAGCUCAACACAGCGUGGCAAAAUGGUUGUUGCUAGACUGCC | 0.12 |
| GGCAGAGCUCAACACUGAGUGGCAAAGUGGCUGUGGCGAGAAUGCC | 0.03 |
| GACAGAGCUCCACACAGCGUGGCAAAGUGGCUGUGGCUAGAGUGCC | 0 |
| GACAGAGCUCAACACAGCGUGGCAAAGCGUCUGUCGCUAGACAGCC | 0.02 |
| GUCAGAGCUCAACACAGCGUGGCAAAGUGACGUUGGCUAGACUGCC | 0.02 |
| GGCAGAGCUCAACACAGCGUUGCACAGUGGCUGUGGCUAGACCGCC | 0.15 |
| GGCACAGCGCAUCACGGCGUGGCAAAGUGGCUGUGGCUAGACUGCC | 0.01 |
| GGCAGAGCUCAACACAGCGUCGCAAAGUGGCUGUGUCUAGACUACC | 0.08 |
| GGCAGAGCUGAACACAGCGAGGCAAUGUGGCUGUGGCUAGACUGCC | 0.05 |
| GGCAGAGCUCAAAACAGCGUGGCAAAGUGGCUGUGGCUCGACUGCG | 0.04 |
| GGCAGGGCUCAAGACAGCGUGGCAAAGUGGCUGUGGUUAGACUGCC | 0.14 |
| GGCAGAGGUCAACACAGCGCGGCACAGUGGCUGUGGCUAGACUGCC | 0.05 |
| GGCAGAGCUCAACACAGCGUGGCAAAGUGGCAGUGGCUAGACAUCC | 0.04 |
| GGCAGAUCUCAACACAGCGCGGCAAAGUGGCUGUGGCUUGACUGCC | 0.02 |
| GGCAGAGCCCAACAAAUAGUGUCAAAGUGGCUGUUCCUAGAGUGGC | 0 |
| GGCAGAGCUCAACACAGCGUGGCAAAGUGUCUGUGUCUAGACUUCC | 0.3 |
| GGCAGAGAUCAACACAGCGUGGCAAAGUGGCUGUGGCUUGAGUGCC | 0.16 |
| GGCAGAGCUCAACACAGCGUGGCAAAGACGCUGUGGUUAGACUGCG | 0.05 |

| Variant | self-cleavage |
| --- | --- |
| GGCAGUGCUCAACACAACGUGGCAAAGUGGCAGUGCCCAGACUGCC | 0.01 |
| GGCAGAGCUCAACACCGCGUGGCAAACUGGCUGUGGCUACACUGCC | 0.03 |
| GGCAGAGCUAAACACAGAGUGGCAAAGUGUCUGUGACUAGACUGCA | 0.01 |
| GGCAGAGCUCAACACAGCGUGGCAAACUGGCUGUGUCUAGACUGCA | 0 |
| GGCACAGUUCAACACAGCGUGGCAAAGUGGCUGUGGCUAAACUGCC | 0.02 |
| GGCAGAGCUCAACACACCGUGGCAAAGUCGCUGUGGCCAGACUGCC | 0.05 |
| GGCAGAGCUCAACACAGCCUGGCAAAGUGACUGAGGCUAGACUGCC | 0.04 |
| GGCAGAGCUGAACACAGCGUGGCACAGUGGAUGUGGCUAGACUGCC | 0.01 |
| GGCAGACCUCAACUCAGCGCGGCAAAGUGGCUGUGGCUGAACUGCC | 0.05 |
| GGCAGAGCUCUACACAGCGUGCCAUAUUGGCUGUGGCUAGACUGCC | 0.07 |
| AGAAGAGCUCAACACAGCGGGGCAAAGUGGCUGUGGCUAGACUGCA | 1.03 |
| GGCAGAGCUAAACACAGCUUGGCAUAGUGGCUGUGGCUAGACUGCC | 0.08 |
| GGCAGAGCUCAACACAGCGUGGGAAAGUGGCUGUAGCUUGACUGCC | 0.58 |
| GUCAGAGCUCAACUCAGCGUGGCAAAGUGGCUGUUGCUAGACUGCC | 0.04 |
| GGAACAGCUCAACACAGCGUGGCAAAGUGGCUGUGGCUAGACUGCA | 0.13 |
| GGCAAAGCUCAACACAGCGUGGCAAAGUGGCUGUGGCUACACUCCC | 0.05 |
| CGCAGAGCUCAACACAGCGUGGAAAAGUGGGUGUGGCCAGACUGCC | 0.02 |
| GGCAGAGCUCAACAUGGGGUGGCAAAGUGGCUGUGGCUAGACUGCC | 0.02 |
| GGCAGAGCUCAACACAGCGUUGCAAAGUGGAUGUGGCUAGACUGGC | 0.01 |
| GGCAUAGCUAAAUACAGCGUGGCAAAGUGGCAGUGGCUAGACUGCC | 0.01 |
| GACAGAGCUCAACUCAGCGUGGCAAAGUGUCUGUGGCUAUACUGCC | 0.02 |
| UGAAGAGCUCAACACAGCGUGGCAAAGUGGCUGUGGCUAGACUGGC | 0.26 |
| GGCAGAGCUCAAGGCAGCGUGGCAAAGUGGCUAUGGCCAGACUGCC | 0.06 |

| Variant | self-cleavage |
| --- | --- |
| GGCAGAGCUCAACACAGCGUGGCAAAGUGGCUGAGGCUAGUCUCCC | 0.05 |
| GGCCGAGCUCAACACAGCGUGGCCAAGUGGUUGUGGCUAGACUUCC | 0.08 |
| GGCAGAGCGCAUCACAGCUUGGCAAAGUGGCUUUGGCUAGACUGAC | 0 |
| GGCAGACCUGAAAACAGCGUGGCAAAGUGGCUGUGGCUAGACUGCC | 0.01 |
| GGCUGAGCUCAUCACAGUGUGGCAAAGUGGCUGUGGCUAGACUGCA | 0.17 |
| GGCAGACCUCAACACAGAGUGGCAAAGUGCUUGUGGCUAGACUGCC | 0.08 |
| GGCAGAGCUCAACACAGCGUGGCUAAGUGGCCGUGGCUAGACUGCU | 0.05 |
| GGGAGAGCUUAACACAGCGUGGCAAAGUGGCUGUGGCUACACUGCC | 0.09 |
| GGCAGAGCACAACACAGCGCGGCAAAGUGGCUGUGGCUAGAUUGCC | 0.11 |
| GGAAGAGCUCAACACAGCGUGGCAAAGUUGCUGUGGCUAGACUGCU | 0.41 |
| GGCAGAGCUCACCACUGCGUGGCAAAGUGUCUGUGGCUAGACUGCC | 0.02 |
| GGCAGAGCUCAACACAGCCUGGCAAAGUUGCUGUGGCGAGACUGCG | 0.04 |
| GGCAAAGAUCAGCACAGCGUGGCAAAGUGGCUGUGGCUAGACUGCC | 0.18 |
| GGCAGAGCUCAACACCCCGUGGCAAAGUGGAUGUGGCUAGACUGCC | 0 |
| GGCAGAGCUCAACACCGCGUGGCAAGCUGGCUGUGGGCAGACUGCC | 0.08 |
| GGCAGAGCUCGACACAGCGUGGCAAAGUGGCAGAGGCUAGACUGCC | 0.04 |
| GGCAGAGAUCAAAACCGCGUGGCAAAGUGGCUGUGGCUGGACUGCC | 0.17 |
| GGCAGAGUUCAACAAAGCGUGGCAAAGUGGCUGUGGCUAGAAUGCC | 0.2 |
| GACAGAGCUCAACACAGCGUGGCAUAGUGGCUGUGGCUGGAUUGAC | 0.25 |
| GGCAGAGCUCAAAACAGCGUGGCAGAGUGGCUGUGGCUAUACUGCC | 0.02 |
| GGCAGAGCUCAACACAUCGUGGGAAAGUGGCUGUGGUUAGACUGCC | 0.11 |
| CGCAUGGCUAAACACAGCGUGGCAAAGUUGCUGUGGCUAGACUGCC | 0.01 |
| GGCAGAGCUCAACACCGCAUGGCAGAGUGGGUGUAGCGAGACUGAC | 0 |

| Variant | self-cleavage |
| --- | --- |
| GGCAGCGCUCAACACACCGUGGCGAAGUGGCUGUUGCUAGACUACC | 0.02 |
| GACAGAGCUCUACACAGCGUGGCAAAGUGGCUGUGCCUAGACUGCC | 0.03 |
| GGCAAAGCUCAACACAGAGUGGCAAAGUCGCAUUGGCUAGACUGCC | 0.02 |
| GGCAAAGCUAAAGACAACGUGGCAAAGUGGCUGUGGCUAGUCUGCU | 0.05 |
| GGCAGAGCUCAACACAGCGUGGCAAAGGGGCUAUGGCUAGAUUUCC | 0.05 |
| GGCAGACCUAAACACAGCGUGGCAAAGCGGCUGUGGCUAGACUGCC | 0.05 |
| GGCGGAUCUAAACACAGCGUGGCACAGAGGCUGUGGCUAGACUGUC | 0.02 |
| GGCAGAGCUCUUCACAGGGUGGCAAACUGGCUGUGGCUAGACUGCC | 0 |
| GGCAGAGCUCAACACAACGUGGCAGAGUGGCUGUGGCUAGACCGCC | 0.02 |
| GGCAGAGCUCAACAAGGCGUGGCAAAGUGGCUGUGGCUAUACUGCC | 0.15 |
| GGCAGAGCUCACUACAGCGUGGCACAGUGGCUGUGUCUAGACUGCC | 0.03 |
| CGCAGAGCUCAAGACAGCGUGGCAAAGUGUCUGUGGCUAGACUGCC | 0.02 |
| GGCACAGCUCAACACAGCGUGACAAAGUGCCUGUGGCUUGACUGCC | 0.31 |
| GGGAGAGCUCAACACUGCCUGGCAAAGUGGCUGUGGCUAGACUGAC | 0.28 |
| GGCAGAGCUCAACCCAGCGUGGUAAAGUGGCGGCGGCUAGACUGCC | 0.12 |
| GGCAGAGGACAACACAGCAUAGUAAAGUGGCUGUGGCUAGACUGCC | 0.05 |
| GGCAGAGCUCAACACAGCGCGGCAAAAUGGAUGUGGCUAUACUGCC | 0.09 |
| UGCAGAGCUCAACACAGCGUGGCAAGGUGGCUGUGGCUUGACUGCC | 0.06 |
| GGAAGAGCUCAACACAGCCUGGCUAAGUGGCUGUGGCUAGACUGCC | 0.02 |
| GGGAGCGUUCAACACAGCGUCGCAAAGUGGCUGUGGCUAGACUGCC | 0.19 |
| GCCAAAGCUCAACACAGCGGGGCAAAGUGGCUGUGGCUAGACGGCC | 0 |
| GGCAGAGCUCUACACGGCGUUGCAAAAUGGCUGUUGCUAGACUGCA | 0.01 |
| GGCAGUGCUCAACAAAGCGUGGCAAAGUCGCGGUGGCUAGACUGCC | 0.27 |

| Variant | self-cleavage |
| --- | --- |
| GGCAGAGCUCAACACAGCGUUGCAAAGUGGCUGUGCCUAGACUUCC | 0.05 |
| GGCACUGCUCAACACAGCGUGGCAAAGUGCCUGUGGCUAGACUGCC | 0.04 |
| GGCACAGCUCAACACAGCUUGGCAAAGUGGCUAUGGCUAGACUGCC | 0.02 |
| GGCGGAGCUCAACAAAGCGUGGCAAAGUGGCUGUGGCUAGACUGGC | 0.08 |
| GGCAGGUCUCAACACAGCGUGGCAAAGUGGCUGUGGCUAUACUGGC | 0.26 |
| GACAAAGCUCAAGACAGCGUGGCAGAGUGGCUGUGGCUAGACUGCC | 0.4 |
| GGCGAAGCUCAACACAGCAUGGCAAAGUGGCUCUAGCUAGACUGCC | 0.03 |
| GGCAAAGCUCAACACAGAGUGGCAAAGUGGCUGUGGUUAGACUGCC | 0.08 |
| GGCCGAGCUCAACACAGCGUGACAAAGUGGAUGUGGCUAGACUGCC | 0.05 |
| GGCAGGGAUCAACACAGCGUGGCAAACCGGCUCUGGCUAGACUGCC | 0.04 |
| GGCAGAUCCCAACACAGGGUGGCUAAGUGGCUGUGGCUAGACUGCC | 0.11 |
| GGCAGAGCACAACACAGCGUAGCAAAGUGGAAGUGUCUCGACUGCC | 0.02 |
| GGCAGAGCUCAACACAGCGUGGCAAAACGGCUCUGGCUAGACUGGC | 0.03 |
| GGCAGAGCUUAACACAGCGUGGCAAAUUGGCUGUUGCUAAAUUGCC | 0.03 |
| GGCAGAGCUCAACGGAGCGUGGCAAAGUGGCUGUGGUCAGCCUGUC | 0.01 |
| GGCGUAGCUCAACACAGCGUGGCAAAGUGGCAGUGGCUAGACUGCC | 0.04 |
| GGCAGAACUCAAUACCGCGUGGCAAAGUGGCUGUGGCUAGACCGCC | 0.73 |
| GGCAGAGCUCAACACAGCAUGGUAAAGUGGCUGUGGCUUGACUGCC | 0.8 |
| GGCAGAGAUCAACACUGGGUGGCAAAGUGGCUGUGGCUAGACUGCC | 0.1 |
| GGCAGUGCUCAACUCAGCGUGGCAGAGUGGCUGUGGCUAGGCUGCC | 0.23 |
